Measured values reported in PMC4336329 (PLoS ONE, 2015).
About 2,200 (0.71%) of roughly 310,000 compounds showed an effect of 50% or more. Effects have a minus sign here. The list shows a part of the results. Where a SMILES comes first, the peptide text is derived from it. [ ]: non-standard residue; d: D form. The star is where a group is joined. ξ: configuration not given here. Cbz = O=C(OCc1ccccc1)*; ξV = CC(C)C(N)C(=O)O

Molecular target: human ether-à-go-go-related gene (hERG) potassium channel (human, UniProt Q12809)
Experiment: primary screen, population patch clamp on CHO cells stably expressing hERG

human ether-à-go-go-related gene (hERG) potassium channel, sequence (Q12809 whole entry, looked up): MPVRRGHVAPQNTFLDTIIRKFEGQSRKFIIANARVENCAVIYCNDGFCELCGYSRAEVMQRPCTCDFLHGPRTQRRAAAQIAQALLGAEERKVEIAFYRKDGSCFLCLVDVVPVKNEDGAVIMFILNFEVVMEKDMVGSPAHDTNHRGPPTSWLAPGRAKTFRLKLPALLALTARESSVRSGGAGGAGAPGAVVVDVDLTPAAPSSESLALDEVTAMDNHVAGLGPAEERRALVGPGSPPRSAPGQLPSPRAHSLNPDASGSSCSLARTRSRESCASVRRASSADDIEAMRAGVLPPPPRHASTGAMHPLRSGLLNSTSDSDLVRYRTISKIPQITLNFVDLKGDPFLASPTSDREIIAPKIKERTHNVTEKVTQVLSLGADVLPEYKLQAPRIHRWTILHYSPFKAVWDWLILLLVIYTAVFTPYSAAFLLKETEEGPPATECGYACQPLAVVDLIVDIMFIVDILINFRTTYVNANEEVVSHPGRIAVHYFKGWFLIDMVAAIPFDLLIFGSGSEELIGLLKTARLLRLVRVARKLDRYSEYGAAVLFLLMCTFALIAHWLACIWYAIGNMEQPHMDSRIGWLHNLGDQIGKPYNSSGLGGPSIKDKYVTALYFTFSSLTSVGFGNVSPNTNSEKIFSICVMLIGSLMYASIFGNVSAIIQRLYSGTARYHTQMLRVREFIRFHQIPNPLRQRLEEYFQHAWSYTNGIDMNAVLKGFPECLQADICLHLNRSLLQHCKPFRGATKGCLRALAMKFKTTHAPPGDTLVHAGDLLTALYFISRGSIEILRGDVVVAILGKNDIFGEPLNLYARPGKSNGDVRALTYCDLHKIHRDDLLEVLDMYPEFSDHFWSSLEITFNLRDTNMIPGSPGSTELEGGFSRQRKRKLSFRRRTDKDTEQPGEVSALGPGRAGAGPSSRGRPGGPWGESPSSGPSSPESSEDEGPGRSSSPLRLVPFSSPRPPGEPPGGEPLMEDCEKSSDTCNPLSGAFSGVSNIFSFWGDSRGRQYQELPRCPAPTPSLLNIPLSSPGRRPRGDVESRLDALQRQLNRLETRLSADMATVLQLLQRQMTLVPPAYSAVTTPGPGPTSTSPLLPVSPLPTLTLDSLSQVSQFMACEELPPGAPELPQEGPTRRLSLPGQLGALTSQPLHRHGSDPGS

Structure (SMILES) | hERG current change (%, negative = inhibition) at 1uM [%]
COc1cccc(NC(=S)Nc2ccc(Br)cc2Cl)c1 | 25.6
CCOC(=O)C(CC)(CC)C(=O)/C=C/c1ccc(Br)cc1 | 7.42
CC1CCN(S(=O)(=O)c2ccc3c(c2)CCN3C(=O)C2CCC2)CC1 | 13
CC(Oc1ccccc1F)c1nnc(SCC(=O)Nc2ccc(N3CCOCC3)cc2)o1 (centres unmarked) | 7.98
Cn1c(CN2CCOCC2)nc2cc(NC(=O)COc3ccccc3)ccc21 | 6.7
COc1ccc(OCC(O)CN2CCCCCC2)cc1 (centres unmarked) | 3.87
CCn1c(SCC(=O)NC2CCCc3ccccc32)nnc1-c1ccncc1 (centres unmarked) | 1.47
CCCCCCCN1CCC(=O)N([C@H](CO)Cc2ccccc2)CC1 | -77.2
COc1ccc(CN(Cc2cc3cc4c(cc3[nH]c2=O)OCO4)C(=O)NC2CCCCC2)cc1 | -8.93
CC1CN(c2ccc([N+](=O)[O-])cc2Cl)CCN1S(C)(=O)=O (centres unmarked) | -9.35
CCN1C(=O)c2cccc3c(NS(=O)(=O)c4ccc(NC(C)=O)cc4)ccc1c23 | -0.0346
C=CCNCCOCCOc1ccc(Cl)cc1C(C)(C)C.O=C(O)C(=O)O | 9.25
COc1ccccc1NC(=O)Cn1c(=O)n(-c2ccccc2)c(=O)c2oc3ccccc3c21 | 3.63
Cc1cccc2nc(-c3ccco3)c(Nc3ccccc3)n12 | 5.43
Cc1ccc(N(CC(O)CN2CCCCC2)S(=O)(=O)c2ccccc2[N+](=O)[O-])cc1 (centres unmarked) | -48.8
COC(=O)CNC(=O)C(NC(=O)OCc1ccccc1)C(C)C (centres unmarked) (Cbz-[ξV]-Gly-OMe) | 6.38
Cc1oc(CC(C)C)cc1C(N)=O | 17.7
COc1ccccc1CN1C(=NC(=O)CCC2CCCC2)SC2CS(=O)(=O)CC21 (centres unmarked) | 15.4
CCOC(=O)c1[nH]c2c(c1-c1ccccc1)C(=O)CC(c1ccccc1)C2 (centres unmarked) | -5.44

Structure (SMILES) | hERG current change (%, negative = inhibition) at 1uM [%]
CCOc1ncccc1C(=O)OCC(=O)Nc1c(C)cccc1C | 6.35
N#Cc1ccccc1Cn1cc(C#N)c2ccccc21 | 2.92
CCOC(=O)N1CC=C2C(C#N)=C(N)C(C#N)(C#N)[C@H](c3ccc(OCC)c(OCC)c3)[C@H]2C1 | 7.29
CCOc1cc(/C=C(/C#N)C(=O)Nc2ccc(OC)cc2)ccc1OCc1ccc(C(=O)O)cc1 | 11.6
CCc1ccc(/C=N/NC(=O)c2cc(C3CC3)nc3ccccc23)s1 | 3.91
CC(NC(=O)COc1cccnc1[N+](=O)[O-])c1ccc(Cl)cc1Cl (centres unmarked) | 9.69
Cl.O=C(OCCN1CCCCC1)C1(c2ccccc2)CCCC1 | 15.3
O=C1C(Cl)=C(N2CCN(Cc3ccccc3)CC2)C(=O)N1Cc1ccccc1 | 8.7
Fc1ccc(N2Cc3ccsc3C=N2)cc1 | 9.09
N#Cc1ccc(COC(=O)CSc2nnc(N)s2)cc1 | 13.6
O=C(NNC(=O)c1sccc1-n1cccc1)c1ccccc1 | 8.34
CCOc1ccc(C(=O)OCC(=O)Nc2nc(OC)cc(OC)n2)cc1OCC | 12.3
Cl.OC1(C#CCN2CCCC2)CCCCC1 | 10.1
Cc1nn(-c2ccccc2)c2sc(C(=O)NNC(=O)COc3cccc4ccccc34)cc12 | 1.28
CCOC(=O)CN(C(=O)c1snc(C(N)=O)c1N)C(C(=O)NCCC(C)C)c1ccc(F)cc1 (centres unmarked) | 7.34
Cc1c(NC(=O)C(C)C)cccc1-c1nc2ncccc2o1 | 18.5
CCOC(=O)N1CCN(C(=O)CCS(=O)(=O)c2ccc(Br)s2)CC1 | 11.9
COc1ccc2[nH]c(=O)c(CN(C(C)=O)C3CCCCC3)cc2c1 | -3.87
CCc1ccc(-c2cc3c(=O)n(CC(=O)NCCCN4CCN(C)CC4)ncn3n2)cc1 | 3.4

Structure (SMILES) | hERG current change (%, negative = inhibition) at 1uM [%]
O=C(NCCCCc1ccccc1)Nc1ccc(F)cc1F | 12
O=C(/C=C/c1c(Cl)cccc1Cl)N1CCN(c2ncccn2)CC1 | -53
Cc1ccc(NC(=O)CSCC(=O)Nc2cccc(S(=O)(=O)N3CCCCCC3)c2)cc1 | 4.25
CCOC(=O)c1ccc(NC(=O)c2cc3c(C)nn(-c4ccccc4Cl)c3s2)s1 | 15.4
COc1ccccc1-c1nc(C#N)c(N2CCN(c3cccc(Cl)c3)CC2)o1 | 1.63
Cc1ccc(C2/C(=C(/O)c3ccc(Cl)cc3)C(=O)C(=O)N2CC2CCCO2)o1 (centres unmarked) | 12.5
COc1ccc(CC(=O)NCc2nnc(SCC(=O)Nc3ncc(C)s3)n2C)cc1 | 8.24
O=C(CN1C(=O)COc2ccccc21)N1CCCC1 | 14.3
CC(C)OC(=O)c1c2c(n3ccccc13)C(=O)c1ccccc1C2=O | 8.56
CCCC(=O)c1ccc2c(c1)OCCO2 | 13.4
Cc1nc(N2CCN(C(=O)COc3ccccc3)CC2)c2c(C)c(C)sc2n1.Cl | -29.3
Cc1ccc(C)c(NC(=O)CN(C)C(=O)CSCc2c(C)noc2C)c1 | -6.25
COc1ccc(C(=O)Nc2c(N)nc(SCC(=O)N3CCC(C)CC3)[nH]c2=O)cc1OC | 11.6
COc1cc(S(=O)(=O)N2CCOCC2)cc(C(=O)c2nccn2C)c1OC | 16.9
CC1CCCN(C(=O)Cn2nnc(-c3ccccc3F)n2)C1 (centres unmarked) | 13.2
COC(=O)c1cc(-c2ccc(Cl)cc2)n(-c2ccc(S(N)(=O)=O)cc2)n1 | 0.875
NC(=O)C1CCN(C(=O)c2cc3ccccn3n2)CC1 | 3.87
O=C(NCCCCCCNC(=O)c1ccncc1)c1ccncc1 | 9.73
